PubChem BioAssay AID504339 (National Center for Advancing Translational Sciences (NCATS), 2011)
Out of some 390,000 compounds screened, about 17,000 (4.4%) were called active. The inconclusive results got no clear call from the source; some entries with a clear call stand among them for comparison. Calls come from the whole dose curve; as a rule, active = well fitted inhibition curve with a large enough effect; inconclusive = small, poorly fitted or top-dose-only effect; inactive = no such curve, though single readings can be large or run the other way. Potencies of inconclusive entries are doubtful fits and often do not repeat.

biological target: Lysine-specific demethylase 4A (Homo sapiens) (UniProt O75164); assay: qHTS Assay for Inhibitors of JMJD2A-Tudor Domain; conditions: AlphaScreen JMJD2A-Tudor / H3K4me3 peptide binding; activity change, negative = inhibition: at 114 µM (top of the series); note: nearly all actives have a fitted effect of over 50% in size
UniProt O75164, sequence (O75164 whole entry, looked up, the tested form may be a part): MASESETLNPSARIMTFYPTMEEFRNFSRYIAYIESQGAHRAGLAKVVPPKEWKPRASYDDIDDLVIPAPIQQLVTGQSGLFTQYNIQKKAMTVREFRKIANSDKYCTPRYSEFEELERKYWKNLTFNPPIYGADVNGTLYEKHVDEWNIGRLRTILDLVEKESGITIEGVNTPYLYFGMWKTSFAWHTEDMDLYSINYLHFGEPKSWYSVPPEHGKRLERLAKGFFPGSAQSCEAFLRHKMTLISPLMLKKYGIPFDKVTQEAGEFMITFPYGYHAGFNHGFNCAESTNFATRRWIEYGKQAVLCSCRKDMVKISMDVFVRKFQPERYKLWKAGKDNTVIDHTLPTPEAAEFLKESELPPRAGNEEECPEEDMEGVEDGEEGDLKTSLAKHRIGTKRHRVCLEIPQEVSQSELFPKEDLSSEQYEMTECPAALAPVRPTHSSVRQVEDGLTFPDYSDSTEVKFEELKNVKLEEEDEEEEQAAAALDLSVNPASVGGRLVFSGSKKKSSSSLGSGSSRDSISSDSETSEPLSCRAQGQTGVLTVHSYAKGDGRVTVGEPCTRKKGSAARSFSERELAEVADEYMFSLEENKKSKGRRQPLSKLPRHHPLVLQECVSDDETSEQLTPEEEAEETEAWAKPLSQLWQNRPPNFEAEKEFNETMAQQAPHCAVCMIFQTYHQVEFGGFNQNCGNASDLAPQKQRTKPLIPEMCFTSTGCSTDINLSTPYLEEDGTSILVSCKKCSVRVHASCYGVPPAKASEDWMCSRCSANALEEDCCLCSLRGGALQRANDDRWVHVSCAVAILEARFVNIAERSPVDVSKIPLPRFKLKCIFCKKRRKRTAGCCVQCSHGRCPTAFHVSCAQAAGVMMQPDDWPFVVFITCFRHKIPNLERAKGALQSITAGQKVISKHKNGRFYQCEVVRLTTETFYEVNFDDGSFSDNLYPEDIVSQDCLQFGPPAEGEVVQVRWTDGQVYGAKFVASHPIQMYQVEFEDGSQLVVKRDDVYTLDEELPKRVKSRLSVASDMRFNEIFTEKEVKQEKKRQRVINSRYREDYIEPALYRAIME
% is set by controls: 0 for no effect and ±100 for the full control effect; potency is the fitted concentration of half-maximal effect; tags give direction and shape of the fitted curve.

Potency, active:
O=C(N/N=C1/CCS(=O)(=O)c2ccc(F)cc21)c1ccccn1 12.6 µM, O=C(NCCc1ccccc1)c1ccc(CSc2nc3cccnc3n2Cc2ccccc2F)cc1 5.62 µM, O=C(CNC1CCCCC1)N1CCc2ccccc2C1 3.16 µM, COc1ccc(-c2c[n+]3c4n2CCCCC4=C(c2ccc(Br)cc2)C3)cc1 56.2 µM, N#Cc1c(SCC(=O)Nc2nc3ccc(Br)cc3s2)sc2c(O)cc(=O)[nH]c12 25.1 µM, COc1ccccc1CNC(=O)C1CCN(C2=NS(=O)(=O)C(c3ccc(C)c(C)c3)=C2C)CC1 56.2 µM, COc1cc(/C=C/C(=O)OCC(=O)Nc2ccc(C)c(S(=O)(=O)N3CCCCC3)c2)ccc1O 35.5 µM, COc1cccc(-c2nn(C)c3sc(C(=O)NCc4ccc(C)o4)cc23)c1 50.1 µM, O=C(NNc1ccccc1)C(=O)NNS(=O)(=O)c1ccc([N+](=O)[O-])cc1 3.16 µM, Nc1c(/C=C2/C=CC(=O)C(O)=C2)c(=O)nc2sc(CC(=O)N3CCOCC3)nn12 20 µM, COc1ccc2sc(N(CCCN(C)C)C(=O)c3ccc(S(=O)(=O)N4CCc5ccccc5C4)cc3)nc2c1 56.2 µM, COc1cccc(NC2=C(NCCO)C(=O)c3ccccc3C2=O)c1 50.1 µM, Cc1ccc(-c2csc(N3CCN(c4ccc5nc(-c6ccncc6)n(CCN6CCCCC6)c5c4)CC3)n2)cc1 44.7 µM, CC1(C)Cc2c(C#N)c(SCC(=O)c3ccccc3)nc(N3CCOCC3)c2CO1 63.1 µM

Potency, inconclusive:
COC1=C/C(=C/c2c(N)n3c(nc2=O)sc2cc(S(C)(=O)=O)ccc23)C=CC1=O 89.1 µM [inhibitor, partial curve], CC(C)(C)c1ccc(OCC(=O)NNC(=S)NC(=O)c2ccco2)c(Br)c1 39.8 µM [inhibitor, full curve], Cc1c(Cc2ccccc2)sc(/N=C/c2c(O)ccc3ccccc23)c1C(N)=O 10 µM [inhibitor, full curve, poor fit], O=C1c2ccccc2C(=O)c2cc(S(=O)(=O)Nc3cccc4cccnc34)ccc21 31.6 µM [inhibitor, full curve], O=C(CSc1nc2ccccc2[nH]1)N1c2ccccc2Sc2ccccc21 44.7 µM [inhibitor, partial curve], O=C(c1cc([N+](=O)[O-])cc([N+](=O)[O-])c1)N(Cc1nnc(-c2ccccc2Cl)o1)C1CC1 100 µM [inhibitor, partial curve, poor fit], Cc1ccc(C2(SCC(N)C(=O)O)c3ccccc3-c3ccccc32)cc1 (stereo not given) 17.8 µM [inhibitor, partial curve], CC(C)(C)NC(=O)NC(=O)CSc1ncc(C(F)(F)F)cc1Cl 22.4 µM [inhibitor, full curve, poor fit], O=C(CSc1nnc(-c2ccco2)n1Cc1ccccc1)c1ccccc1 50.1 µM [inhibitor, partial curve], COc1cc(SC)ccc1C(=O)N1CCN(c2ccc(O)cc2)CC1 44.7 µM [inhibitor, full curve], N#CC1=C(N)S[C@@H](C(=O)c2ccc(F)cc2)[C@@H]1c1cccs1 89.1 µM [inhibitor, partial curve], COc1cc(CSc2ncc(CO)n2Cc2ccc(C)cc2)cc(OC)c1 20 µM [inhibitor, full curve, poor fit], CC(C)c1ccc(CN(C(=O)/C=C/c2ccco2)C2CCS(=O)(=O)C2)cc1 (stereo not given) 70.8 µM [inhibitor, partial curve], COc1cc(C2c3[nH]c4ccccc4c3C[C@@H]3C(=O)N(Cc4ccco4)CC(=O)N23)cc(OC)c1OC (stereo not given in full) 39.8 µM [inhibitor, partial curve], COc1cc2nc(N3CCN(c4cc(C)ccc4C)CC3)nc(N)c2cc1OC 56.2 µM [inhibitor, single point], O=C1CCCC(O)=C1N=Nc1cccc(S(=O)(=O)N2CCOCC2)c1 39.8 µM [inhibitor, single point], CCCN1CCN(CCCNC(=O)c2ccc3c(c2)sc2nc(-c4ccc(OCC)cc4)cn23)CC1 39.8 µM [inhibitor, partial curve], Cc1ccc(C(=O)N/C(=C\c2cccs2)C(=O)NCCc2c[nH]c3ccccc23)cc1 39.8 µM [inhibitor, partial curve], Oc1ccc2ccccc2c1CNc1ccc(Br)cc1 17.8 µM [inhibitor, full curve], C=CC(=O)N1C/C(=C/c2ccc(Cl)cc2)C(=O)/C(=C\c2ccc(Cl)cc2)C1 7.94 µM [inhibitor, full curve], COc1ccc2c(c1)C(c1ccc(C)o1)=NNC(c1cccnc1)=N2 44.7 µM [inhibitor, partial curve], CC(C)N1CCc2c(sc(NC(=O)c3ccc(S(=O)(=O)N(C)C4CCCCC4)cc3)c2C(N)=O)C1 56.2 µM [inhibitor, partial curve], COc1ccc(CNC(=O)c2cc3c(s2)CN(Cc2ccccc2)C3)cc1 56.2 µM [inhibitor, partial curve], C#CCOCCOCCOCCNc1nc(N2CCOCC2)nc(N2CCN(C(=O)CCCCCCCCCCNC(=O)[C@@H]([C@H](C)CC)n3cc(CCCCCN)nn3)CC2)n1 56.2 µM [inhibitor, partial curve], CCCCN=Cc1c(C)[nH]n(-c2ccccc2)c1=S 12.6 µM [inhibitor, partial curve, poor fit], COc1cccc(C2C(C(=O)c3cccs3)=C(O)C(=O)N2CCN(C)C)c1OC (stereo not given) 89.1 µM [inhibitor, single point], COc1ccc(C(=O)NCC(c2ccc(N(C)C)cc2)N2CCCC2)c(OC)c1 (stereo not given) 56.2 µM [inhibitor, partial curve], O=C1NC(=S)S/C1=C\c1cc(Cl)ccc1Cl 79.4 µM [inhibitor, partial curve], Fc1ccc(CSc2ccc3nnc(-c4ccccn4)n3n2)cc1 44.7 µM [inhibitor, partial curve], Cc1cccc(NCc2nc3ccccc3n2CCOc2ccccc2C)c1 15.8 µM [inhibitor, full curve], CCCN(CC(=O)c1cc(C)n(C)c1C)S(=O)(=O)c1cccc(C(F)(F)F)c1 89.1 µM [inhibitor, single point], Clc1cccc(C2Nc3cccc4cccc(c34)N2)c1 10 µM [inhibitor, full curve, poor fit], CC(C)(C)OC(=O)[C@H](Cc1ccccc1)NC(=O)c1nc[nH]c1C(=O)NC1CCNCC1 44.7 µM [inhibitor, partial curve], Cc1cccc(Nc2nc(NCCCN3CCOCC3)nc(N)c2[N+](=O)[O-])c1 17.8 µM [inhibitor, full curve]

Potency, inactive:
CC1=C(C(=O)OCC2CCCCC2)C(c2ccccc2F)NC(=O)N1 (stereo not given), O=C(NCCc1ccc(Cl)cc1)C1(c2cccs2)CCOCC1, Clc1ccccc1-c1nnc2sc(-c3cccs3)nn12, CC(=O)N1CCSc2ccc(S(=O)(=O)NCCc3cccc(C)c3)cc21, Cc1ccc(CN(CC(=O)NC2CCCC2)C(=O)CSc2nnc(COc3ccccc3)o2)cc1, Cc1noc(NC(=O)c2c(-c3c(Cl)cccc3Cl)noc2C)c1[N+](=O)[O-], Cc1nc(N2CCOCC2)c2c(C(=O)N(C)c3ccccc3)c(C)oc2n1, NC(=O)COC(=O)c1ccc2c(c1)S(=O)(=O)c1ccccc1C2=O, CCOC(=O)c1ccc(CNC(=O)C2CCC(=O)N(CCc3ccccc3)C2)o1 (stereo not given), Cc1cccc(N=C/C(C(=O)C(F)(F)F)=C(\O)c2ccco2)c1, CCOc1ccc2cc(C(=O)NCc3ccccc3)c(=N)oc2c1, Cc1ccccc1CNC(=O)C(=O)NCC(c1ccc2c(c1)OCO2)N1CCOCC1 (stereo not given), COc1ccc(OCc2cc(C(=O)NCC3CCOCC3)no2)c(Cl)c1, FC(F)(F)c1ccc(Cl)c(-n2c(-c3cc(-c4ccco4)[nH]n3)n[nH]c2=S)c1, CCC(=O)Nc1cccc(C2=NOC3(C2)C[C@@H](C(N)=O)N(C(=O)c2cc([N+](=O)[O-])cc([N+](=O)[O-])c2)C3)c1 (stereo not given in full), CC1CCC(NC(=O)C2(C)Cc3ccccc3C(=O)N2Cc2ccc(F)cc2)CC1 (stereo not given), Cc1cccc(-c2nc(CSc3nncn4c3cc3oc(C)cc34)c(C)o2)c1, COc1ccc(-c2nc(CS(=O)CC(=O)N3CCCC3)c(C)o2)cc1 (stereo not given), COCCN=C1NN=C(c2ccc(NC(C)=O)cc2)CS1, CCN(CC)CCn1c2ccccc2c2nc3ccc([N+](=O)[O-])cc3cc21, Cc1ccc(OCc2cc(C(=O)NC(C)Cc3cccc(C)n3)no2)cn1 (stereo not given)

Activity change, negative = inhibition, inconclusive:
Cc1ccc(OCCOCCN2CCCCC2)c([N+](=O)[O-])c1 -100% [inhibitor]
